Measurements taken from PubChem BioAssay AID1963576 (National Center for Advancing Translational Sciences (NCATS), 2024).
Hit rate of the full screen: of about 46,000 compounds, about 60 (0.1%) were called active. Another 3% or so got no clear call; they are omitted. The call rests on the fitted dose curve; in most records, active means well fitted inhibition curve with a large enough effect; inconclusive means small, poorly fitted or top-dose-only effect; inactive means no such curve, though single readings can be large or run the other way. The list shows a part of the results.

Assay: Primary qHTS assay for Inhibitors of ovarian cancer metastasis using an organotypic tumor microenvironment (TME) model. Further: nearly all actives have a fitted effect of over 65% in size.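 On activity change, negative = inhibition: plate controls were DMSO wells for no effect and tomatine positive control wells for full effect.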
Conditions: SKOV3ip1-GFP adhesion/invasion on 3D omental model, fluorescence; series mostly up to 45.8 µM; activity change, negative = inhibition: at the top concentration
Procedure, shortened: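 A 3D layer of primary human omental fibroblasts, mesothelial cells, fibronectin and collagen I, grown 48 hr, received SKOV3ip1-GFP cells in serum-free medium plus compounds at 0.36-46 umol/L. After 2 hr RT and 16 hr 37 C, fixed adherent GFP cells were counted; normalized to DMSO and tomatine.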

outcome, inactive:
COc1ccc(CNS(=O)(=O)c2ccc3c(c2)C(C)(C)C(=O)N3C)cc1OC, CCOC(=O)C1=C(CS(=O)(=O)c2ccc(F)c(C)c2)NC(=O)NC1c1ccc(F)c(F)c1 (stereo unspecified), Cc1ccc(CCNC(=O)c2ccc(CNS(=O)(=O)c3ccc(F)cc3)cc2)cc1, Cc1cc(C)c2c(n1)SCC(=O)N2CC(=O)Nc1c(C)cccc1C, Cc1cc(C)cc(NC(=O)Nc2c[nH]c(=O)[nH]c2=O)c1, COc1cc(-c2nnc(SCC(=O)N(C)C3CCCCC3)o2)cc(OC)c1OC, CCc1ccc(OCC2c3cc(OC)c(OC)cc3CCN2C(=O)Cc2ccc(OC)c(OC)c2)cc1 (stereo unspecified), COc1ccc(OC)c(CCNC(=O)c2sc3nc4n(c(=O)c3c2C)CCCC4)c1, COc1ccc(-n2c(=O)c3c(C)c(C)sc3n(Cc3ccc(F)cc3)c2=O)c(OC)c1, CCOc1ccccc1NC(=O)C1CCN(S(=O)(=O)Cc2ccccc2)CC1, CCn1cc(C(=O)NCc2ccccc2)c(=O)c2cc(S(=O)(=O)N3CCOCC3)ccc21, Cc1cc(O)c(C(c2ccccc2Cl)N2CCCCC2)c(=O)n1Cc1ccco1 (stereo unspecified), O=C(NCCc1ccc(Cl)cc1)c1ccc2c(c1)N(Cc1ccc(F)cc1Cl)C(=O)CS2, CC(NC(=O)c1ccc(N2Cc3ccccc3Oc3ncccc32)s1)c1ccccc1 (stereo unspecified), Cc1ccc(/C=C/c2onc(C)c2S(=O)(=O)N2CCC(C(=O)NCc3ccc(Cl)cc3)CC2)cc1, COc1ccc(-c2nc(CSc3nc4ncccc4[nH]3)c(C)o2)cc1OC

Activity change, negative = inhibition, inactive:
COC(=O)c1c(NC(=O)CCCOc2ccccc2C)sc2c1CCC2 -20.3%, Cc1cccc(N2CCN(C(=O)c3cccc(-n4c(C)nc5cccnc54)c3)CC2C)c1 (stereo unspecified) -3.73%, Cc1c(C(=O)Nc2ccccc2Cl)oc2ccc(S(=O)(=O)N3CCCCCC3)cc12 6.18%, CC(=O)N1CCc2c(sc(NC(=O)CSc3ccc(C)cc3)c2-c2nc3ccccc3s2)C1 46.6%, COC(=O)c1cc2sc(Cl)cc2n1Cc1nc(-c2ccccc2F)oc1C 7.31%, O=C1CC(=O)Nc2cc(S(=O)(=O)Nc3cccc(Br)c3)ccc2N1 -8.46%, COc1ccc(OC)c(CCNc2ncnc3onc(C)c23)c1 -1.38%, CCn1c(CN2CCC(C)CC2)nc2cc(NC(=O)c3cccc([N+](=O)[O-])c3)ccc21 -18.1%, O=C(NC1(C(F)(F)F)N=C(c2ccccc2)N(C2CCCCC2)C1=O)c1ccccc1F (stereo unspecified) -0.614%, COc1ccc(NS(=O)(=O)c2cc3c4c(c2)CC(=O)N4CCC3)cc1Cl 11.1%, COc1ccccc1NC(=O)Cn1c(SCC(=O)NCc2ccccc2)nc2ccccc21 3.16%, CC(=O)Nc1ccc(-c2nnc3n(CC(C)C)c(=O)c4ccccc4n23)cc1 9.42%, Cc1cc(C)cc(NC(=O)NCC2CCN(Cc3cc(C)ccc3C)CC2)c1 -7.04%, Cc1ccc(-c2cc(-c3coc4ccccc4c3=O)c3c(n2)-c2cc(Cl)ccc2OC3)cc1 5.97%, COc1ccc(-c2noc(CSc3nnc(-c4ccncc4)n3-c3cccc(C)c3)n2)cc1OC 4.92%, COc1ccc(NC(=O)CCCN2C(=O)C(c3ccccc3)Oc3cccnc32)cc1OC (stereo unspecified) -12.4%, COc1ccc(NC(=O)c2oc3ccc4c(c3c2C)C(=O)CC(C)(C)O4)cc1OC 5.67%, COc1cc2c(cc1NC(=O)C(C)Oc1ccc(Cl)cc1Cl)oc1ccccc12 (stereo unspecified) 10.4%, CCNC(=O)Nc1ccc2ncc(Nc3ccc(C)cc3)nc2n1 -4.01%, COc1ccc(CCC(=O)NCCc2csc(-c3cccc(F)c3)n2)cc1 1.97%, CSCCC(NC(=O)C1CCCCC1)C(=O)Nc1ccc(F)c(Cl)c1 (stereo unspecified) -2.44%, CCNc1c(NC(=O)c2ccccc2OCC)c(=O)oc2ccccc12 -11.5%, COc1ccc(N(C(=O)c2ccccc2C)S(=O)(=O)c2ccc3c(c2)n(C)c(=O)n3C)cc1 5.51%, CCOc1ccccc1NS(=O)(=O)c1c(C(=O)OC)sc2cccc(F)c12 2.96%, CCN(c1ncnc2c1c(-c1ccccc1)cn2-c1ccccc1)C1CCCCC1 8.46%, Cc1ccc(OCC(=O)OCc2cc(=O)n3nc(C4CCCCC4)sc3n2)cc1 -3.66%, Cc1ccc(S(=O)(=O)N2CCCc3cc(NC(=O)c4ccc(C(F)(F)F)cc4)ccc32)cc1 -4.77%, CCOC(=O)C1=C(CNCc2ccccc2)NC(=O)NC1c1ccc(C)cc1 (stereo unspecified) -7.38%, COc1cccc(-c2nc(SC(C(C)=O)C(=O)N(C)C)c3c(=O)n(C)c(=O)n(C)c3n2)c1 (stereo unspecified) 0.653%, Cc1ccc(N2C(=O)[C@@H]3CSC(c4ccc(C(F)(F)F)cc4)N3C2=O)cc1 (stereo partly specified) 6.15%, Cc1cc(=O)n(C(C)C(=O)NCc2ccccc2Cl)c2c1c(C)nn2-c1ccccc1 (stereo unspecified) 0.329%, COC(=O)C1=C(C)NC(=O)NC1c1cn(-c2ccccc2)nc1-c1ccc(OC)c(Cl)c1 (stereo unspecified) -1.34%, CCc1ccc(C2N3CC4(C)CN2CC(c2ccccc2)(C3)C4=O)cc1 (stereo unspecified) -13.5%, Cc1c2cnn(CC(=O)N3CCCCC3)c(=O)c2c(C)n1Cc1ccc(Cl)cc1 20.6%, Cc1ccc(C(C)C)c(OCC(=O)Nc2c(C(=O)c3ccc(F)cc3)oc3ccccc23)c1 -3.35%, COc1cc(OC)c(C2C=C(c3ccc(C)cc3)Nc3c(C(=O)Nc4ccccc4)cnn32)cc1OC (stereo unspecified) 3.15%, Cc1c(Cl)cccc1NC(=O)C(=O)NCCc1csc(-c2cccc(F)c2)n1 0.348%, CCOC(=O)C(C)NC(=O)c1cc2c(=O)[nH]c3ccc(C)cc3c2s1 (stereo unspecified) 2.23%, CC(NC(=O)Cc1ccc(NC(=O)N2CCCCc3ccccc32)cc1)c1ccccc1 (stereo unspecified) 1.54%, O=c1cc(-c2ccccc2)oc2cc(O)c(O)c(O)c12 4.08%, CCn1c(CN2CCCCC2)nc2cc(NC(=O)COc3ccc([N+](=O)[O-])cc3)ccc21 0.49%, COc1ccc(-c2[nH]c(-c3ccccc3)nc2SCC(=O)Nc2ccc3c(c2)OCO3)cc1 2%, COc1ccc(NC(=O)c2ccc(-c3cccc(Cl)c3C)o2)cc1 -0.226%, CSc1ncc(C(=O)NCc2ccccc2Cl)c(C(F)(F)F)n1 0.323%, COc1ccc(CN2CCN(c3ncnc4sc5c(c34)CCCC5)CC2)cc1F 2.89%
